This is an account of results in paper PMC12136788.

B1: chr16:66721972:66722075:-|3pUTR|ENSG00000135720|unk|total|mutant (ssRNA)
RNA: GGGAGUUCUACAGUCCGACGAUCUUUUUAAUUCAGUUUUUUAAAAAAACAAAUGUAUUGUGGCUUCCAGUUACCAGGUUGUCCCGGUAAUGACAGUAAACUGACUGCCGAAUGAUAAUUGUGGUACCGUGACCAACCGAUGCCCAACAGAGGAUUGAGCAUCA
B2: chr4:108667705:108667793:+|3pUTR|ENSG00000198856|msi1_unk|total|mutant (ssRNA)
RNA: GGGAGUUCUACAGUCCGACGAUCUCUGGACAGUUGAUCAGCUUUACCUAUGGUGCUUUGCCUUUAACCCGAGUGUGUGAUGGCCGAUUAUUUCAGAUAUGUAUGUAAAACUGUUUCCUGAACAAUAAGAUGUAUGAACGGAGCCAACAGAGGAUUGAGCAUCA
B3: chr9:132694550:132694651:+|3pUTR|ENSG00000125484|unk|FALSE|bound_elsewhere (ssRNA)
RNA: GGGAGUUCUACAGUCCGACGAUCUUCCUGAAGAUUACAUAUCAGUGUCCUGCGUUUUUAUCUAAUAUUAGAGCUGAGGUUCCUAGGAAAAUUUUGAAGUGGGGAAGAUUAUGGAGAAAAUGAAAUGGAAAUUUGGGGAGGGUGCAACAGAGGAUUGAGCAUCA
B4: chr1:86745841:86745942:+|3pUTR|ENSG00000097033|msi1|total|mutant (ssRNA)
RNA: GGGAGUUCUACAGUCCGACGAUCAUGGUGCAGUUCAGAAUUGUUUAAAUAAGCUCUGUGCCACUGAGCUUAAUCUGAAAGUACCGUGACAUGUGAAGGAUGCACAUAUGAAUGAAAAACUAAAAUAAUUGCCGGCUCUUCUAUCAACAGAGGAUUGAGCAUCA
B5: chr11:85659139:85659240:-|3pUTR|ENSG00000137504|msi1|FALSE|unique (ssRNA)
RNA: GGGAGUUCUACAGUCCGACGAUCGUCUGAUUUAGUAAAAUUUUAAAGCUAAAUAAUCUGAUGACUCUUGAAAGUUUAAUUGGUAGUAUGACAUUUAUGUUUUUUUCCCCCAGACUCACAGCCAAUACAAAGUUUUGAGACUCCCAACAGAGGAUUGAGCAUCA
B6: chr15:58597255:58597356:-|3pUTR|ENSG00000137845|unk|total|mutant (ssRNA)
RNA: GGGAGUUCUACAGUCCGACGAUCUGGAAAAGGAACCCAAUUUUCUUAUGAACAGAUAUUUUUAACUUAAUGGCACAAAGUCUCCGAAUAUUAUUAUGUGCCCCGUGUUCCCUGUUCUUCGUUGCUGCAUUUUCUUCACUUGCACAACAGAGGAUUGAGCAUCA

Some of the results follow.

This assay addresses MSI1 full-length (mouse, UniProt Q61474 1-362). Put plainly: nsRBNS (natural sequence RNA bind-n-seq); RBNS binding buffer (assumed for nsRBNS): 25 mM Tris pH 7.5, 150 mM KCl, 3 mM MgCl2, 0.01% Triton X-100, 500 ug/ml BSA, 20 U/ml SUPERase-In, 4 C; UNK is unkempt and MSI1 is Musashi-1; names of the RNAs are library labels; protein concentration not given here; high values mean tight binding.
Chain of UniProt Q61474 (Q61474 whole entry): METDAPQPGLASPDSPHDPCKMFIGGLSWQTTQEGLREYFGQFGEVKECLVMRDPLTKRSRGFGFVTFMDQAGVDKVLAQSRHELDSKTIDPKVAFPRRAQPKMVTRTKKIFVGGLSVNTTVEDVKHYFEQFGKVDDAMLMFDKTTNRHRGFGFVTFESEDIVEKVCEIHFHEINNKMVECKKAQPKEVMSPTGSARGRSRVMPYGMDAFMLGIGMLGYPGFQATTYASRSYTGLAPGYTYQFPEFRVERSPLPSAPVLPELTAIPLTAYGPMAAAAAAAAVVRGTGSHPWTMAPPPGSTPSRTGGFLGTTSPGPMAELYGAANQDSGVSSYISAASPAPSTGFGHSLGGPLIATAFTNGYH
B1: the binding signal was 0.218 enrichment R. The value for B2 was 0.314 enrichment R.

In the case of B3, the binding signal stood at 1.87 enrichment R. Take B4: the binding signal was 0.235 enrichment R. Under B5 stands 1.21 enrichment R; under B6, 1.11 enrichment R.
